{"source": "the supplement of paper PMC7266297", "note": "Counter-ions that a name gives are not always drawn. Some of the results follow. Most values come without repeats; read them as rough.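 Note: Read-out is SRB optical density at 490 nm, with the control being wells given 0.5% DMSO vehicle, and compound added one day after cells were plated.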"}
{"system": "KB-V1", "test": "growth inhibition relative to DMSO control (SRB); cervical cancer cells: KB-3-1 is the parent and KB-V1 overexpresses MDR1; SRB is the sulforhodamine B stain; higher = more growth inhibition", "details": "1 µM; 72 h", "units": {"growth inhibition": "%"}}
{"smiles": "OC(CCN1CCCCC1)(c1ccccc1)C1CC2C=CC1C2", "note": "(centres undefined) [Biperiden HCl]", "growth inhibition": 38.5}
{"smiles": "Nc1c(Br)cc(Br)cc1CN[C@H]1CC[C@H](O)CC1", "note": "[Ambroxol HCl]", "growth inhibition": 5.56}
{"smiles": "COCCCC/C(=N\\OCCN)c1ccc(C(F)(F)F)cc1", "note": "[Fluvoxamine maleate]", "growth inhibition": 64.4}
{"smiles": "Cc1csc(-c2nnc(Nc3ccc(Oc4ncccc4-c4ccnc(N)n4)cc3)c3ccccc23)c1", "growth inhibition": 20.3}
